Experimental data: publication PMC11582101, “Unlocking the potential: unveiling tyrphostins with Michael-reactive cyanoacrylate motif as promising inhibitors of human 5-lipoxygenase” (Pflugers Archiv, 2024)

molecular target: T1, recombinant human 5-LO (r5-LO_WT) (Homo sapiens, UniProt P09917); test: not given; details: 3 µg r5-LO_WT, 15 min preincubation on ice, 10 µM AA, 2 mM CaCl2; (95% CI), n = 3–6
T1 sequence (P09917 1-674): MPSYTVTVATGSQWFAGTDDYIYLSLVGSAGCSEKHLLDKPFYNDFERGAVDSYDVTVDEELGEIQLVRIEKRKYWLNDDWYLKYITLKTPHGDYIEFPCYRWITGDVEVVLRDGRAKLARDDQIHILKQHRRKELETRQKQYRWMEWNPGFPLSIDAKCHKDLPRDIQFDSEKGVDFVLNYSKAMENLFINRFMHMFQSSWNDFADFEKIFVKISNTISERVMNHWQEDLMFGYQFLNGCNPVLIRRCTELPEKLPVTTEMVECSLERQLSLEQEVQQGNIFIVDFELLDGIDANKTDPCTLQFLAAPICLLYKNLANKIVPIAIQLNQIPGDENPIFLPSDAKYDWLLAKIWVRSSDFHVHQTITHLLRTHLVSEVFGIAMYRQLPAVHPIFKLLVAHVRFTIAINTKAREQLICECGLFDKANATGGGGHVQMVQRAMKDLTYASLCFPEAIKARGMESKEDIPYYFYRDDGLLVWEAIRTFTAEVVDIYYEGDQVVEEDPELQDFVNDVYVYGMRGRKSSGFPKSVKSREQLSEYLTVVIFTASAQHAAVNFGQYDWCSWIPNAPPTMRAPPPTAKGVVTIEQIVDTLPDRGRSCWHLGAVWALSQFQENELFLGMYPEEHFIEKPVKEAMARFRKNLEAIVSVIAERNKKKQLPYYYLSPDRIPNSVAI

| IC50 for inhibition of 5-LO product formation, r5-LO_WT | SMILES |
| --- | --- |
| only marginal 5-LO inhibiting activity | N#C/C(=C\c1ccc(O)c(O)c1)C(=O)O [AG30] |
| no inhibition | N#CC(C#N)=Cc1ccc(O)cc1 [Tyrphostin 8] |

| SMILES | IC50 for inhibition of 5-LO product formation, r5-LO_WT |
| --- | --- |
| N#C/C(=C/c1cc(Cl)cc(Cl)c1)c1cccnc1 [RG14620] | failed to inhibit r5-LO_WT or only showed marginal inhibitory activity |

molecular target: T1, recombinant human 5-LO (r5-LO_WT); test: biochemical; details: IC50 for inhibition of 5-LO product formation, 3 µg r5-LO_WT, 15 min preincubation on ice, 10 µM AA, 2 mM CaCl2, (95% CI), n = 3–6

| IC50 | SMILES |
| --- | --- |
| 0.08 µM and 0.078 µM | CC(C)(C)c1cc(/C=C(\C#N)C(N)=S)cc(C(C)(C)C)c1O [AG879] |
| 0.084 µM | O=C(/C=C/c1ccc(O)c(O)c1)OCCc1ccccc1 [CAPE, caffeic acid phenethyl ester] |
| > 25 µM | N#C/C(=C/c1cc(Cl)cc(Cl)c1)c1cccnc1 [RG14620] |
| 0.45 µM | CC(C)c1cc(/C=C(\C#N)C(=O)NCCCc2ccccc2)cc(C(C)C)c1O [SU1498] |
| 0.94 µM | C[C@H](NC(=O)/C(C#N)=C/c1cccc(Br)n1)c1ccccc1 [WP1066] |

Second part, the compound before the results:

| SMILES | IC50 |
| --- | --- |
| N#C/C(=C\c1ccc(O)c(O)c1)C(N)=O [(E)-AG99] | 1.5 µM |
| N#CC(C#N)=Cc1ccc(O)c(O)c1 [AG18] | ~1 µM and 1.4 µM |
| N#CC(C#N)=Cc1cc(O)c(O)c(O)c1 [AG82] | ~1 µM and 0.93 µM |
| N#CC(C#N)=Cc1ccc([N+](=O)[O-])c(O)c1 [AG126] | > 20 µM |
| N#C/C(=C\c1ccc(O)c(O)c1)C(=O)NCc1ccccc1 [AG490] | 0.28 µM |
| N#C/C(=C\c1ccc(O)c(O)c1)C(=O)Nc1ccccc1 [AG494] | 0.36 µM |
| N#C/C(=C\c1ccc(O)c(O)c1)C(=O)NCCCCc1ccccc1 [AG556] | 0.064 µM |
| CCC[C@H](NC(=O)/C(C#N)=C/c1cccc(Br)n1)c1ccccc1 [Degrasyn] | 0.11 µM |

“And” between values parts separate entries of the source, which are not always exact repeats. Identical values can stand only once.
